Laboratory results published in the supplement of paper PMC7826260.
This is one part of the list. Viral Rep nickase domains cut single-stranded DNA in vitro at 3 µM enzyme and 37 °C for 1 h; the strands have 90 letters, of which the middle is given. Values are log2 of uncut reads against the no-enzyme pool; more negative means more cut, near 0 not cut, and no call is made. The scaling is to total reads; values above 0 arise when much of the pool is cut.

Columns and labels:
Test in all cases: uncleaved DNA left, log2 of reads against the no-enzyme library (log2 ratio); higher = less cleavage (more negative = more Rep cleavage of the k-mer); sequences stand for … in CTCGTCCG…ACCGGAGA
[1] = system: T1, Rep nickase domain of Muscovy duck circovirus
T1 sequence (residues 1-111, tag not shown): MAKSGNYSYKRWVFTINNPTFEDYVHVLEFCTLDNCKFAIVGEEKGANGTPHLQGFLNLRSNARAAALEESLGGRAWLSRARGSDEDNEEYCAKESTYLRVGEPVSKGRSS
Procedure: (§1)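 A pool of 90-nt single-stranded DNAs with seven random bases just before the constant AC of the nick site (name = the seven bases) was cut by 3 µM recombinant His6-SUMO-tagged Rep nickase domain (300 nM DNA, 50 mM HEPES pH 8.0, 50 mM NaCl, 1 mM MnCl2, 1 h, 37 °C, three replicates). Uncut DNA was amplified and sequenced.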

[2] = system: T2, Rep nickase domain of banana bunchy top virus
T2 sequence (residues 1-94, tag not shown): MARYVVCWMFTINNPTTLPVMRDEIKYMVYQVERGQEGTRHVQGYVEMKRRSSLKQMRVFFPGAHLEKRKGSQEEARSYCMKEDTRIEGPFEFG
Procedure: as §1

[3] = system: T3, Rep nickase domain of cabbage leaf curl virus
T3 sequence (residues 1-116, tag not shown): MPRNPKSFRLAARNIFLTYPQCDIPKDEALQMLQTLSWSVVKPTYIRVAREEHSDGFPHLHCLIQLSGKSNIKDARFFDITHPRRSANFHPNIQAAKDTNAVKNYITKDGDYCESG
Procedure: as §1

[4] = system: T4, Rep nickase domain of chickpea chlorotic dwarf virus
T4 sequence (residues 1-124, tag not shown): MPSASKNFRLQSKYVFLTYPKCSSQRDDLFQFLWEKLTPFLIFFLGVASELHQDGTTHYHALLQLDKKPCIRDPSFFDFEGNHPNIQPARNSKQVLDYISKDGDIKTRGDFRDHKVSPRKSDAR
Procedure: as §1

[5] = system: T5, Rep nickase domain of faba bean necrotic yellows virus
T5 sequence (residues 1-98, tag not shown): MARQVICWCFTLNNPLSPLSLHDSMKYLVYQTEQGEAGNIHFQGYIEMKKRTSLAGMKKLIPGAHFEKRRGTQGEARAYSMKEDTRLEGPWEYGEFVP
Procedure: as §1

[6] = system: T6, Rep nickase domain of maize striate mosaic virus
T6 sequence (residues 1-117, tag not shown): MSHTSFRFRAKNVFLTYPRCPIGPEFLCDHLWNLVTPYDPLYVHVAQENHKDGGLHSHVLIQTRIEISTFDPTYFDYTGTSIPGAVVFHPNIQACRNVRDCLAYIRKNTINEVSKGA
Procedure: as §1

[7] = system: T7, Rep nickase domain of porcine circovirus 2
T7 sequence (residues 2-116, tag not shown): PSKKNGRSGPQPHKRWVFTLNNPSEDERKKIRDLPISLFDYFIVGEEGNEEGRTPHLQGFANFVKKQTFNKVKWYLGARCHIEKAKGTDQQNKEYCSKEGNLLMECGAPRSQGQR
Procedure: as §1

[8] = system: T8, Rep nickase domain of tomato golden mosaic virus
T8 sequence (residues 1-124, tag not shown): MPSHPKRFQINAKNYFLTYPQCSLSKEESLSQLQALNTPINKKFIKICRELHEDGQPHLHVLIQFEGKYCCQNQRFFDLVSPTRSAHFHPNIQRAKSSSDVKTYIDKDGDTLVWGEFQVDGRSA
Procedure: as §1

[9] = system: T9, Rep nickase domain of tomato yellow leaf curl virus
T9 sequence (residues 1-136, tag not shown): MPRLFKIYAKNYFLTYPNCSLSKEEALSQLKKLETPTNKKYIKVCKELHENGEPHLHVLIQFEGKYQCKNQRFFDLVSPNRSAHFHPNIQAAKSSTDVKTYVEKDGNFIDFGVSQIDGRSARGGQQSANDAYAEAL
Procedure: as §1

[10] = system: T10, Rep nickase domain of wheat dwarf virus
T10 sequence (residues 1-137, tag not shown): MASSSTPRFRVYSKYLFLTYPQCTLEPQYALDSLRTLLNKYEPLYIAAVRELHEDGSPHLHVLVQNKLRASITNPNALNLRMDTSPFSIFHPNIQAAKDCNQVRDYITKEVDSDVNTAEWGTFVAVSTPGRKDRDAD
Procedure: as §1

Sequence	uncleaved DNA left (log2) [1]	uncleaved DNA left (log2) [2]	uncleaved DNA left (log2) [3]	uncleaved DNA left (log2) [4]	uncleaved DNA left (log2) [5]	uncleaved DNA left (log2) [6]	uncleaved DNA left (log2) [7]	uncleaved DNA left (log2) [8]	uncleaved DNA left (log2) [9]	uncleaved DNA left (log2) [10]
CATCTAC	-0.0472	-0.0228	-0.183	-1.99	-0.0478	-0.534	0.0473	-0.0186	0.138	0.0233
TAACTTC	-0.163	0.0308	-2.81	-3.02	-0.0244	-1.27	-0.201	-0.335	0.0426	-0.986
GCGTCAC	0.0431	0.112	0.115	0.509	0.00798	0.408	0.073	-0.0499	0.0897	0.196
GCGAGGG	-0.0797	0.0349	-0.0132	0.496	-0.0322	1.24	-0.0176	0.00891	-0.0668	-0.0493
TCAACTC	-0.102	-0.122	-0.0662	-1.26	-0.122	-0.377	-0.154	-0.205	-0.0878	-0.0819
TGGCGCC	-0.0628	-0.0324	-0.152	-0.303	0.0844	-0.488	-0.0523	-0.0799	-0.1	-0.0612
CTCAATA	-0.0633	-0.000475	-0.198	-1.38	0.19	-0.647	-0.0394	0.0743	-0.0109	0.0199
GAATGCG	0.0322	-0.0351	-0.00238	1.17	0.0469	0.926	0.0924	-0.0573	-0.00773	-0.0425
CTCATGC	-0.0631	-0.0353	-0.544	-0.449	-0.0981	-1.15	0.118	-0.097	0.0216	-0.114
CACGGTT	-0.144	-0.0886	-0.00773	-0.593	-0.212	0.886	-0.211	0.0207	-0.216	-0.212
TTTGGCC	0.015	0.0169	0.0161	-0.0631	0.0142	-0.684	0.057	0.0704	0.0137	-0.105
CGTCGTT	-0.0783	-0.0992	-0.205	-1.37	-0.0674	-0.578	-0.816	-0.0935	-0.106	-0.156
ACGCGAT	-0.0905	-0.126	-0.536	-0.378	0.146	-0.79	0.143	-0.137	-0.104	-0.2
TACGCCT	-0.137	-0.147	-1.88	-2.66	-0.0656	-0.798	-0.584	-0.238	-0.108	-0.251
CGTTTGA	-0.0332	-0.012	-0.13	-0.0988	0.0372	-0.613	0.0491	-0.0534	-0.00446	0.0464
TACTGCA	-0.644	-0.0949	-0.506	-1.42	-0.0519	-0.958	-2.64	-0.0184	0.118	-0.149
GTGCTCT	0.0448	-0.0144	0.307	0.666	-0.055	1.61	0.0217	-0.00825	-0.0618	-0.0168
CCTGGGA	-0.0866	-0.27	0.0515	0.16	-0.185	-0.108	-0.0537	-0.000274	-0.107	-0.157
AGCACTC	0.0259	-0.0252	0.118	0.509	-0.0983	1.17	-0.0211	-0.0819	-0.0962	-0.0127
GCGTACC	0.00446	-0.0987	-0.000648	0.077	-0.0662	0.211	-0.181	0.00533	-0.0483	0.0519
CTTTTTG	0.012	0.00684	-0.632	-0.471	0.095	-1.22	0.0872	-0.0884	0.0864	-0.0555
CGGTTCG	0.017	0.00983	-0.786	0.00615	-0.0761	-0.754	0.13	-0.168	-0.0103	-0.0953
AATGCAC	0.103	0.0684	-0.22	-0.271	0.0666	-0.853	0.109	0.0649	0.0255	0.0637
TGGAACA	-0.0733	0.0456	0.642	1.06	-0.0758	1.83	0.0955	-0.057	0.0579	0.0262
AAACAGA	-0.037	0.0306	-0.125	-0.811	0.0604	-0.923	0.157	-0.0106	-0.0188	-0.0446
GCCCGGT	-0.0905	-0.19	0.159	0.469	-0.206	0.502	-0.0768	-0.178	-0.302	-0.216
ACCAACA	-0.104	-0.0835	-0.425	-2.39	0.0728	-1.02	-0.0933	-0.13	-0.199	0.069
TACCACT	-0.0873	-0.103	-1.15	-3.17	0.00913	-0.915	-2.65	-0.0399	-0.0448	-0.19
GGACAAG	0.212	0.048	0.76	1.82	0.00485	1.95	0.254	0.0575	0.0646	0.212
